Among all 310,000 compounds or so, about 18,000 (5.8%) were called active. The inconclusive results got no clear call from the source; some entries with a clear call stand among them for comparison. Calls come from the whole dose curve; as a rule, active = well fitted inhibition curve with a large enough effect; inconclusive = small, poorly fitted or top-dose-only effect, or another doubt; inactive = no such curve, though single readings can be large or run the other way. No potency is given beside an inconclusive call; the fits are too rough.
Assay: Primary qHTS for delayed death inhibitors of the malarial parasite plastid, 48 hour incubation
Settings: P. falciparum luciferase growth in erythrocytes; series mostly up to 28.7 µM
In short: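 Parasite viability was followed by luminescence of a genomically integrated firefly luciferase. Cultures held 0.1% parasitemia at 2% hematocrit (final), incubated under 5% CO2 at 37 C.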
With `Cc1ccc2nc(CCCc3nc4ccc(C)cc4[nH]3)[nH]c2c1` the Potency was inconclusive [inhibitor, partial curve, poor fit].
With `Cc1ccc(CN(CC(=O)N/N=C/c2ccccc2[N+](=O)[O-])S(=O)(=O)c2ccc(C)cc2)cc1` the Potency was inconclusive [inhibitor, single point].
For `O=[N+]([O-])c1cccc(NC(=S)N2CCN(S(=O)(=O)c3ccccc3)CC2)c1`, the Potency was inconclusive [inhibitor, full curve].
For `Cc1ccc(Nc2nc(C)nc3c2oc2ccccc23)cc1`, the Potency was inconclusive [inhibitor, single point].
With `O=C(CCCCn1c(=O)[nH]c2ccccc2c1=O)N1CCN(c2cccc(C(F)(F)F)c2)CC1` the Potency was inconclusive [inhibitor, partial curve, poor fit].
With `O=C1NC(c2ccccc2)=C(c2ccc3ccccc3n2)C(c2ccccc2)N1` (stereo not drawn) the Potency was active: 11.7 µM.
With `COc1cc(/C=C(\C#N)c2nc3ccccc3s2)ccc1OCC(=O)Nc1ccccc1` the Potency was inconclusive [inhibitor, single point].
In the case of `O=C(CCN1CCN(C(=O)c2ccco2)CC1)Nc1ccc(F)cc1`, the Potency is reported as inconclusive [inhibitor, single point].
In the case of `CCOc1ccccc1N(C)S(=O)(=O)c1ccc2c(c1)N(C(C)=O)CCO2`, the Potency is reported as “inactive”.
With `COc1ccccc1OCCCCN1CCN(C(c2ccccc2)c2ccccc2)CC1` the Potency was inconclusive [inhibitor, partial curve].
In the case of `CC1=NN(S(=O)(=O)c2ccc(Cl)cc2Cl)C(=O)c2ccccc2O1`, the Potency is reported as “inactive”.
With `Cc1ccc(S(=O)(=O)N2CCC(C(=O)Nc3ccccc3N3CCCCC3)CC2)cc1` the Potency was active: 7.38 µM.
With `CCCCN(C)Cc1c(C(=O)N2CCc3ccccc3C2)nc2ccc(Cl)cn12` the Potency was inconclusive [inhibitor, single point].
In the case of `O=C1C(=O)N(CCO)C(c2ccccc2[N+](=O)[O-])/C1=C(\O)c1ccccc1` (stereo not drawn), the Potency is reported as “inactive”.
With `COc1ccc(/C=C2\NC(=O)C(C=NCc3ccccc3)=C2O)cc1` the Potency was inconclusive [inhibitor, partial curve, poor fit].
In the case of `CC(C)(C)OC(=O)NC1CCN(S(=O)(=O)c2ccc3c(c2)OCCO3)CC1`, the Potency is reported as “inactive”.
For `CCOc1ccccc1NC(=S)NCCc1ccc(F)cc1`, the Potency was inconclusive [inhibitor, partial curve, poor fit].
For `COc1ccc(-n2c(SCC(=O)Nc3ccccc3OC)nc(O)cc2=O)cc1`, the Potency was inconclusive [inhibitor, partial curve].
With `CC1CCc2c(sc3ncnc(SCC(=O)N4CCN(C(=O)c5ccco5)CC4)c23)C1` (stereo not drawn) the Potency was inconclusive [inhibitor, partial curve, poor fit].
With `O=C(O)c1ccc(Cn2cnc3cccnc32)cc1` the Potency was “inactive”.
With `CCc1ccc(CNC(=O)C2CCCN(c3nn4c(=O)cc(C)nc4s3)C2)cc1` (stereo not drawn) the Potency was inconclusive [inhibitor, partial curve, poor fit].
With `Cc1cc(C)nc(NC(=O)c2cc3ccccc3o2)n1` the Potency was “inactive”.
For `CN1CCCC1CCNS(=O)(=O)c1ccc(Br)cc1` (stereo not drawn), the Potency was inconclusive [inhibitor, partial curve, poor fit].
With `COc1cccc(C2NC(=S)NC3=C2CCc2ccccc23)c1` (stereo not drawn) the Potency was “inactive”.
With `COc1cc(OC)cc(C(=O)N[C@H](C(=O)Nc2cc(C)cc(C)c2)C(C)C)c1` the Potency was inconclusive [inhibitor, single point].
With `COc1cc(/C=C/C(=O)c2ccc3c(c2)OCCO3)cc(OC)c1OC` the Potency was inconclusive [inhibitor, single point].
In the case of `CCOC(=O)Cn1c(=O)c2c(nc3n2CCCN3Cc2ccccc2)n(C)c1=O`, the Potency is reported as inconclusive [inhibitor, partial curve, poor fit].
In the case of `Cc1cc(O)c2c(c1)C(=O)C13C(=C2O)C(=O)[C@H]2[C@@H](O)[C@@H]1[C@H]1[C@H](O)[C@@H]3C(=O)C3=C(O)c4c(O)cc(C)cc4C(=O)C312` (stereo partly drawn), the Potency is reported as active: 4.15 µM.
For `O=C(Nc1ccc2nn(-c3ccc(F)cc3)nc2c1)c1cccnc1`, the Potency was inconclusive [inhibitor, single point].
With `COc1cccc(C(=O)Nc2nc(-c3ccncc3)cs2)c1` the Potency was “inactive”.
For `Cc1cc(C)c2c(c1)c(C)cc1nnc(SCC(=O)c3cccs3)n12`, the Potency was inconclusive [inhibitor, full curve, poor fit].
With `Cc1cccc(NC(=O)CN(CC2CCCO2)C(=O)c2cc3ccccc3o2)c1C` (stereo not drawn) the Potency was inconclusive [inhibitor, single point].
For `COc1ccc(/C=N/N2CCOCC2)cc1COc1ccc(F)cc1`, the Potency was inconclusive [inhibitor, single point].
With `Oc1cc(NCCN2CCOCC2)cc2cccnc12` the Potency was active: 4.65 µM.
In the case of `CC(=O)Nc1sc2c(c1C(c1ccccc1Cl)N1CCN(CCO)CC1)CCCC2` (stereo not drawn), the Potency is reported as inconclusive [inhibitor, partial curve, poor fit].
In the case of `COc1cc(C(=O)Nc2ccc3c(c2)CCCN3C(=O)c2ccco2)c([N+](=O)[O-])cc1OC`, the Potency is reported as inconclusive [inhibitor, single point].
For `COc1cc(CNC23CC4CC(CC(C4)C2)C3)ccc1OCc1ccccc1`, the Potency was inconclusive [inhibitor, single point].
For `O=C(CN1CCOCC1)N/N=C/c1cccc2ccccc12`, the Potency was “inactive”.
With `Cc1ccc(C(=O)NCCN2C3=NC[C@H](Cc4ccc(O)cc4)N3C[C@H]2Cc2ccc(O)cc2)cc1Br` the Potency was active: 4.15 µM.
For `CCCn1c(N2CCN(C(=O)NCc3ccccc3)CC2)nc2ccccc21`, the Potency was inconclusive [inhibitor, partial curve, poor fit].
With `COc1ccc(NC2c3ccccc3C(=O)N2c2ccccn2)cc1` (stereo not drawn) the Potency was inconclusive [inhibitor, single point].
With `Cc1ccc(NC(=O)c2cccc(S(=O)(=O)N(C)c3ccccc3)c2)cc1S(=O)(=O)N1CCOCC1` the Potency was inconclusive [inhibitor, single point].
In the case of `CCC(=O)N1CCc2cc(S(=O)(=O)NCCC(=O)N3CCN(c4ccccc4)CC3)ccc21`, the Potency is reported as inconclusive [inhibitor, single point].
For `Cc1cc(Br)ccc1NC(=O)CN(C)C(=O)C1CCN(C(=O)c2ccc(F)cc2)CC1`, the Potency was inconclusive [inhibitor, single point].
For `Cn1c(O)c(C2=c3ccccc3=NC2=O)sc1=Nc1ccc(Cl)cc1`, the Potency was “inactive”.
With `COc1ccc(CCNC(=S)Nc2ccccc2)cc1` the Potency was active: 10.4 µM.
For `CCN(CC)CCN1C(=O)CN=C(c2ccccc2F)c2cc(Cl)ccc21`, the Potency was inconclusive [inhibitor, partial curve, poor fit].
In the case of `Cc1ccc(S(=O)(=O)N(C)C)cc1NC(=O)c1ccc(-n2cncn2)c([N+](=O)[O-])c1`, the Potency is reported as “inactive”.
In the case of `CC(Oc1ccc(Cl)cc1Cl)C(=O)Nc1cccnc1` (stereo not drawn), the Potency is reported as inconclusive [inhibitor, single point].
With `Cc1ccc(C(=O)NCc2ccccn2)o1` the Potency was inconclusive [inhibitor, single point].
In the case of `Cc1ccc(S(=O)(=O)N2CCCCC2C(=O)Nc2nncs2)cc1` (stereo not drawn), the Potency is reported as “inactive”.
In the case of `C/C(=N/NC(=O)c1ccoc1C)C12CC3CC(CC(C3)C1)C2`, the Potency is reported as “inactive”.
With `CCOc1ccc(NC(=S)Nc2cc(-c3ccccc3)[nH]n2)cc1` the Potency was inconclusive [inhibitor, partial curve, poor fit].
In the case of `COc1cccc(C(NC(C)=O)c2ccc3cccnc3c2O)c1` (stereo not drawn), the Potency is reported as inconclusive [inhibitor, full curve].
With `CC1(C)c2ccccc2N2CC(=O)NC21/C=C/c1ccco1` (stereo not drawn) the Potency was inconclusive [inhibitor, single point].
In the case of `CCOc1cc2nc(-c3ccc(OC)c(OC)c3)nc(N3CCOCC3)c2cc1OC`, the Potency is reported as inconclusive [inhibitor, full curve, poor fit].
For `CC(=O)Nc1sc2c(c1C#N)CCC(C)C2` (stereo not drawn), the Potency was “inactive”.
With `O=C1CC(c2ccccc2Cl)c2c(sc3c(=O)[nH]c(CCl)nc23)N1` (stereo not drawn) the Potency was “inactive”.
With `N#Cc1nc(-c2ccc(OCc3ccc(Cl)cc3)cc2)oc1NCc1cccnc1` the Potency was “inactive”.
For `Cc1ccc[n+](CC2OCc3ccccc3CO2)c1`, the Potency was inconclusive [inhibitor, single point].
In the case of `O=C(O)c1cc2c(cn1)[nH]c1ccccc12`, the Potency is reported as “inactive”.
In the case of `CCC(C)[C@H](NC(=O)[C@@H]1CSC2c3ccccc3C(=O)N21)C(=O)N1CCCCC1` (stereo partly drawn), the Potency is reported as inconclusive [inhibitor, single point].
With `CC(C)CCNC(=O)NC(=O)COC(=O)CCN=C1NS(=O)(=O)c2ccccc21` the Potency was “inactive”.
In the case of `O=C(C1CC(=O)N(c2ccc3c(c2)OCCO3)C1)N1CCN(Cc2ccccc2)CC1` (stereo not drawn), the Potency is reported as inconclusive [inhibitor, single point].
For `CCN(CC)C(=O)CSc1nc2cccnc2n1-c1ccccc1OC`, the Potency was “inactive”.
In the case of `CCc1ccc2nc(NC(=O)Cn3cnc4ccccc4c3=O)sc2c1`, the Potency is reported as “inactive”.
With `CNc1nc(Cl)c(SC)c(NCc2ccc(F)cc2)n1` the Potency was inconclusive [inhibitor, single point].
In the case of `CC1(C)CC(=O)C(N=Nc2cc(S(=O)(=O)N3CCOCC3)ccc2Cl)=C(O)C1`, the Potency is reported as inconclusive [inhibitor, full curve].

Reference: PubChem BioAssay AID504832 (National Center for Advancing Translational Sciences (NCATS), 2011)
Potency is the fitted concentration of half-maximal effect; tags give direction and shape of the fitted curve.
